Assay results from the supplement of paper PMC4604168 (melanoma cell lines).
The other results are listed elsewhere or left out. Single values are uncertain, as repeats are few or missing.

Key:
Assay in all cases: cell count relative to DMSO control; melanoma cells; higher = more viable cells
Details in all cases: library dose: standard library concentration; 72 h
IST-MEL1 = system: IST-MEL1
LB2518-MEL = system: LB2518-MEL
LOXIMVI = system: LOXIMVI
MEL-HO = system: MEL-HO
MZ2-MEL = system: MZ2-MEL
MeWo = system: MeWo
RPMI7951 = system: RPMI7951
RVH-421 = system: RVH-421
SkMel28 = system: SkMel28
SkMel2 = system: SkMel2
SkMel30 = system: SkMel30
SkMel5 = system: SkMel5
UACC257 = system: UACC257
UACC62 = system: UACC62
WM115 = system: WM115
WM1716 = system: WM1716
WM1745 = system: WM1745
WM3526 = system: WM3526
WM3619 = system: WM3619
WM451Lu = system: WM451Lu
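Further: cells treated in 1,536-well plates, then fixed and DAPI-stained, with nuclei counted from automated high-throughput microscope images.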

## COC(=O)c1sccc1S(=O)(=O)Nc1ccc(Nc2ccccc2)cc1OC + CCN(CC)CCCCNc1ncc2cc(-c3cc(OC)cc(OC)c3)c(NC(=O)NC(C)(C)C)nc2n1 [PD173074] (first compound 5 µM, partner dose 0.5 µM)
IST-MEL1
  cell count: 103%
LB2518-MEL
  cell count: 118%
LOXIMVI
  cell count: 110%
MEL-HO
  cell count: 95.1%
MZ2-MEL
  cell count: 82.5%
MeWo
  cell count: 95.5%
RPMI7951
  cell count: 112%
RVH-421
  cell count: 107%
SkMel28
  cell count: 111%
SkMel2
  cell count: 90.1%
SkMel30
  cell count: 92.5%
SkMel5
  cell count: 90.8%
UACC257
  cell count: 100%
UACC62
  cell count: 84.6%
WM115
  cell count: 93.5%
WM1716
  cell count: 98.6%
WM1745
  cell count: 85.1%
WM3526
  cell count: 87.1%
WM3619
  cell count: 74.7%
WM451Lu
  cell count: 79%

## O=C1NC(=O)/C(=C/c2ccc(-c3ccc(F)cc3O)o2)S1 + c1cc(-c2cnn3cc(-c4ccc(OCCN5CCCCC5)cc4)cnc23)ccn1 [Dorsomorphin] (first compound 5 µM, partner dose 2 µM)
IST-MEL1
  cell count: 102%
LB2518-MEL
  cell count: 75.7%
LOXIMVI
  cell count: 102%
MEL-HO
  cell count: 74.6%
MZ2-MEL
  cell count: 89%
MeWo
  cell count: 77.5%
RPMI7951
  cell count: 74.7%
RVH-421
  cell count: 107%
SkMel28
  cell count: 95.8%
SkMel2
  cell count: 85.6%
SkMel30
  cell count: 83.5%
SkMel5
  cell count: 65.9%
UACC257
  cell count: 96.8%
UACC62
  cell count: 119%
WM115
  cell count: 76.1%
WM1716
  cell count: 99.6%
WM1745
  cell count: 61.2%
WM3526
  cell count: 78.4%
WM3619
  cell count: 94.3%
WM451Lu
  cell count: 73.8%

## COc1ccc(-c2ccc3c(N4CCOCC4)nc(N4C[C@@H](C)O[C@@H](C)C4)nc3n2)cc1CO + COc1cc2ncnc(Nc3ccc(Oc4ccccc4)cc3)c2cc1OC [SrcI1] (first compound 0.1 µM, partner dose 10 µM)
IST-MEL1
  cell count: 80.4%
LB2518-MEL
  cell count: 83.2%
LOXIMVI
  cell count: 63.7%
MEL-HO
  cell count: 82.4%
MZ2-MEL
  cell count: 59.4%
MeWo
  cell count: 75.2%
RPMI7951
  cell count: 38.8%
RVH-421
  cell count: 78.5%
SkMel28
  cell count: 42.9%
SkMel2
  cell count: 72.4%
SkMel30
  cell count: 79.5%
SkMel5
  cell count: 56.6%
UACC257
  cell count: 74.7%
UACC62
  cell count: 71.1%
WM115
  cell count: 54.7%
WM1716
  cell count: 64.9%
WM1745
  cell count: 52%
WM3526
  cell count: 46%
WM3619
  cell count: 42%
WM451Lu
  cell count: 72.1%

## Cn1cc(/C=C2\C(=O)Nc3cccnc32)c2ccccc21 + CC(C)CCN1c2nc(Nc3cc(F)c(O)c(F)c3)ncc2N(C)C(=O)C1C [BID1870] (first compound 2 µM, partner dose 1 µM)
IST-MEL1
  cell count: 89.9%
LB2518-MEL
  cell count: 76%
LOXIMVI
  cell count: 94.4%
MEL-HO
  cell count: 75.6%
MZ2-MEL
  cell count: 97.7%
MeWo
  cell count: 73.8%
RPMI7951
  cell count: 73.3%
RVH-421
  cell count: 81.8%
SkMel28
  cell count: 50.1%
SkMel2
  cell count: 73.9%
SkMel30
  cell count: 70.2%
SkMel5
  cell count: 58.8%
UACC257
  cell count: 73.7%
UACC62
  cell count: 64.5%
WM115
  cell count: 103%
WM1716
  cell count: 95.1%
WM1745
  cell count: 81.7%
WM3526
  cell count: 77.3%
WM3619
  cell count: 74%
WM451Lu
  cell count: 87.8%

## COC(=O)c1sccc1S(=O)(=O)Nc1ccc(Nc2ccccc2)cc1OC + Oc1nc(-c2ccc(C(F)(F)F)cc2)nc2c1CSCC2 [XAV939] (first compound 5 µM, partner dose 10 µM)
IST-MEL1
  cell count: 96%
LB2518-MEL
  cell count: 102%
LOXIMVI
  cell count: 102%
MEL-HO
  cell count: 105%
MZ2-MEL
  cell count: 84.3%
MeWo
  cell count: 90.9%
RPMI7951
  cell count: 87.3%
RVH-421
  cell count: 88.4%
SkMel28
  cell count: 73.6%
SkMel2
  cell count: 82.9%
SkMel30
  cell count: 112%
SkMel5
  cell count: 67.5%
UACC257
  cell count: 77.8%
UACC62
  cell count: 79.2%
WM115
  cell count: 78.9%
WM1716
  cell count: 78.1%
WM1745
  cell count: 65.4%
WM3526
  cell count: 92.5%
WM3619
  cell count: 95.6%
WM451Lu
  cell count: 85%

## O=c1cc(-c2cccc3c2Sc2ccccc2S3)oc(N2CCOCC2)c1 + CC(C)CCN1c2nc(Nc3cc(F)c(O)c(F)c3)ncc2N(C)C(=O)C1C [BID1870] (first compound 5 µM, partner dose 1 µM)
IST-MEL1
  cell count: 85.7%
LB2518-MEL
  cell count: 91.7%
LOXIMVI
  cell count: 94.2%
MEL-HO
  cell count: 72.2%
MZ2-MEL
  cell count: 91.5%
MeWo
  cell count: 68%
RPMI7951
  cell count: 67.3%
RVH-421
  cell count: 103%
SkMel28
  cell count: 61.1%
SkMel2
  cell count: 75.3%
SkMel30
  cell count: 78.6%
SkMel5
  cell count: 66.9%
UACC257
  cell count: 76.5%
UACC62
  cell count: 76.7%
WM115
  cell count: 81.5%
WM1716
  cell count: 70.4%
WM1745
  cell count: 87.7%
WM3526
  cell count: 58.3%
WM3619
  cell count: 62%
WM451Lu
  cell count: 70.5%

## COC(=O)c1sccc1S(=O)(=O)Nc1ccc(Nc2ccccc2)cc1OC + O=C1NC(=O)/C(=C/c2ccc(-c3ccc(F)cc3O)o2)S1 [AS252424] (first compound 5 µM, partner dose 5 µM)
IST-MEL1
  cell count: 103%
LB2518-MEL
  cell count: 103%
LOXIMVI
  cell count: 105%
MEL-HO
  cell count: 75.6%
MZ2-MEL
  cell count: 76.5%
MeWo
  cell count: 98%
RPMI7951
  cell count: 96.2%
RVH-421
  cell count: 99.3%
SkMel28
  cell count: 90.2%
SkMel2
  cell count: 76.7%
SkMel30
  cell count: 106%
SkMel5
  cell count: 87.5%
UACC257
  cell count: 96.5%
UACC62
  cell count: 106%
WM115
  cell count: 110%
WM1716
  cell count: 102%
WM1745
  cell count: 89.3%
WM3526
  cell count: 96.8%
WM3619
  cell count: 71.1%
WM451Lu
  cell count: 97.5%

## O=S(=O)(c1ccccc1)N(CC(F)(F)F)c1ccc(C(O)(C(F)(F)F)C(F)(F)F)cc1 + Cn1cc(/C=C2\C(=O)Nc3cccnc32)c2ccccc21 [GW441756] (first compound 7 µM, partner dose 2 µM)
IST-MEL1
  cell count: 101%
LB2518-MEL
  cell count: 80.5%
LOXIMVI
  cell count: 90.2%
MEL-HO
  cell count: 88.5%
MZ2-MEL
  cell count: 86.9%
MeWo
  cell count: 107%
RPMI7951
  cell count: 93%
RVH-421
  cell count: 118%
SkMel28
  cell count: 102%
SkMel2
  cell count: 90.6%
SkMel30
  cell count: 89.3%
SkMel5
  cell count: 67.6%
UACC257
  cell count: 73.5%
UACC62
  cell count: 93.1%
WM115
  cell count: 110%
WM1716
  cell count: 85.9%
WM1745
  cell count: 70.5%
WM3526
  cell count: 75.6%
WM3619
  cell count: 76.3%
WM451Lu
  cell count: 84.1%

## Cc1cc([N+](=O)[O-])ccc1NS(=O)(=O)c1cc(Cl)ccc1Cl + Cn1cc(/C=C2\C(=O)Nc3cccnc32)c2ccccc21 [GW441756] (first compound 5 µM, partner dose 2 µM)
IST-MEL1
  cell count: 66.2%
LB2518-MEL
  cell count: 83.4%
LOXIMVI
  cell count: 73.5%
MEL-HO
  cell count: 57.7%
MZ2-MEL
  cell count: 61.1%
MeWo
  cell count: 82.1%
RPMI7951
  cell count: 79.9%
RVH-421
  cell count: 75.8%
SkMel28
  cell count: 68.6%
SkMel2
  cell count: 81.3%
SkMel30
  cell count: 77.4%
SkMel5
  cell count: 51.6%
UACC257
  cell count: 69.2%
UACC62
  cell count: 83.8%
WM115
  cell count: 76.9%
WM1716
  cell count: 85.1%
WM1745
  cell count: 65.9%
WM3526
  cell count: 73.4%
WM3619
  cell count: 75.3%
WM451Lu
  cell count: 99.7%
